# Data from the supplement of paper PMC4466236.
# Whole data set: some 33,000 sequences, median “E-score (dimensionless, -0.5 to 0.5)” near -0.058, cut for the highest 2% near 0.35. The list shows a part of the results.
# Test system: MvaT
# Assay: PBM 8-mer E-score (mean of HK and ME arrays) (E-score (dimensionless, -0.5 to 0.5)); higher = stronger relative binding preference; most listed sequences are background and not binding sites
# Summary of the method: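 Full-length P. aeruginosa MvaT carrying an N-terminal glutathione S-transferase tag was tested by protein binding microarray following a previously described protocol. Two universal double-stranded 60-mer arrays, ME and HK, were used, each with a constant 25-mer primer region and a variable 35-mer region covering all 8-mers. The rank-based E-score is the mean of the two arrays, parsed with a custom script. Its range runs from -0.5 to 0.5 for each 8-mer.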
row,Sequence,PBM 8-mer E-score
1,TAGCCAGA,-0.246
2,GTCCACGA,-0.105
3,TGTTACAA,0.257
4,GTACTCGA,-0.105
5,GAGATCTA,-0.0145
6,CATATGAA,0.164
7,ACTACAGT,0.0853
8,CAAGCCTG,-0.209
9,ATGTTGCC,0.083
10,GCGTTCAC,-0.167
11,GAGTCTGA,-0.111
12,CATAGACA,0.175
13,ATTTGTAC,0.314
14,TCATGTAA,0.119
15,AAATGCGT,0.187
16,AGCGGCCC,-0.355
17,AAGATTAA,0.317
18,GAAACCTA,-0.0639
19,GACCCTTA,0.0184
20,CATTCCTC,0.0102
21,ATGCTTAA,0.221
22,CATCACGC,-0.13
23,AAGCTACA,-0.0278
24,TCCCGCCA,-0.186
25,GGCTTATA,0.122

row,Sequence,PBM 8-mer E-score
1,ACCGAGTA,-0.0513
2,TATTGCGA,0.206
3,CTGGTATA,0.162
4,ATATATTG,0.446
5,GAGCTGAA,-0.321
6,ATTGGGCG,-0.0684
7,AATCACGC,-0.0219
8,CTATTTAC,0.318
9,GCGAGTGA,-0.0916
10,AACATCAA,0.182
11,TGGTAAAA,0.0973
12,ACTAAGAT,0.252
13,CGTAGGTC,-0.345
14,CGTCTCAC,-0.114
15,AATGCAAG,0.109
16,CAATCCGC,-0.18
17,CGAGAGAC,-0.277
18,ATACCTAT,0.13
19,ATAGAGGG,-0.199
20,ACTTCTCC,0.2
21,CACATACA,0.242
22,ATTTTGGG,0.169
23,CAAACTTA,0.272
24,CTAAACCC,-0.00994
25,AACTACCA,0.17

row,Sequence,PBM 8-mer E-score
1,GGTCGTCA,-0.219
2,CACCACGG,-0.206
3,GCTCTGCA,-0.291
4,AAGCTTAA,0.12
5,TTCTCAAA,0.147
6,CCAGTTTC,-0.0566
7,CCACGGAG,-0.0786
8,AAGCTAAG,-0.0822
9,TCCAAGAA,-0.0455
10,CACCCAGG,-0.241
11,ATTAGGTC,0.0956
12,AGCACTTA,-0.0328
13,CTACGTTA,-0.036
14,GTTGTTCA,0.128
15,TAGTACTA,0.174
16,GAATTAAA,0.385
17,ACCGCCGG,-0.0768
18,AGCATGCT,-0.199
19,CGACACAG,-0.183
20,CCCAACAA,0.0257
21,ATTATTAG,0.411
22,GGTCTCAA,-0.207
23,GCCTGTGA,-0.155
24,GTCGTCAC,-0.234
25,ACGGTGAA,0.00351

row,Sequence,PBM 8-mer E-score
1,CTAGATCC,-0.119
2,CCTAAACC,-0.0826
3,GACAGTCA,-0.171
4,TAGTTTCA,0.224
5,GTAAATAA,0.366
6,ATATGCCG,0.181
7,AGTAGCTC,-0.137
8,ACTGGACT,-0.0688
9,GGAACTCC,-0.224
10,TACATGAA,0.147
11,CACCTCGG,-0.182
12,CACAGACG,-0.11
13,AGGACATA,0.0627
14,GACATAAA,0.144
15,GTCCTGTA,-0.124
16,GTATCCTA,-0.0757
17,CTAAATCA,0.0639
18,AGAAATAG,0.216
19,GATACACA,0.0369
20,CATTTTGG,-0.0361
21,ACACTGCT,0.0055
22,CTCTCCGA,-0.171
23,GTACCCGA,-0.144
24,TGCCAGAA,-0.102
25,GAGAAGAA,-0.0284

row,Sequence,PBM 8-mer E-score
1,ACTGAGAG,-0.191
2,AGCGATTG,-0.101
3,CCTACATA,0.115
4,GGGTCTGA,-0.0915
5,AGTCGAAA,-0.0704
6,AGGTTCTG,-0.13
7,GTGGCATA,0.0717
8,ACTTCTAA,0.242
9,GCCCGTCC,-0.237
10,TACTTGCA,0.306
11,ACGGTACG,-0.0791
12,ATCCGCTG,-0.0237
13,AACTTCCG,0.191
14,GAAAGAGA,-0.126
15,ACCGTCCC,-0.2
16,CTTCTAGA,0.0287
17,ACTTTAAT,0.414
18,ATGCAGTA,0.0837
19,AACAGAAT,0.0463
20,ACGGAGCG,-0.116
21,GTATTCAA,0.0763
22,AAGCACCT,-0.225
23,GCATAAAA,0.144
24,CCGGGTGA,-0.208
25,AAGTGCGT,-0.0188

row,Sequence,PBM 8-mer E-score
1,CTCGGCAG,-0.0953
2,CACCTGCG,-0.14
3,ATATTGGC,0.177
4,ACTCGTGA,-0.0788
5,CGTCCCGC,-0.189
6,AACGTTCG,-0.102
7,ATGTGAGC,-0.189
8,TCAGGTCA,-0.0957
9,AAGATAGC,0.0337
10,AAGCTTTG,-0.0765
11,AAAAGGCA,0.00305
12,AAAGTGCT,0.105
13,AGCACCGA,-0.159
14,ATACTGGA,0.0175
15,CTGACAAA,0.139
16,AAAGGATT,-0.0352
17,CAACCACA,-0.0394
18,CGCCCCGC,-0.284
19,ACATAGAC,0.2
20,ACACATCC,0.0566
21,GACTGCAA,-0.05
22,AAGGCAAT,0.0531
23,ATAGCCTG,-0.159
24,AAGCCCAG,-0.199
25,GGTGTTGA,0.0185

row,Sequence,PBM 8-mer E-score
1,AACGTACT,0.0808
2,TCCAATAA,0.214
3,CCCCGGGG,-0.355
4,ATTTCTAC,0.103
5,ACTACTTG,0.235
6,GCACGTGA,-0.00311
7,AACTTAAC,0.323
8,GAAGCACA,-0.0798
9,CAATCCCG,0.0103
10,ATACCGTG,-0.143
11,GCGTGTCC,-0.236
12,ACACATGT,-0.0302
13,CATTCAGA,0.00448
14,ATCCGCTA,0.0484
15,ACCTGGGC,-0.147
16,GGTTGAAC,-0.0388
17,CATTAACG,0.143
18,AAGAATCA,0.0343
19,ATATCACG,0.243
20,CGCATAAA,0.105
21,ATTAAGAC,0.255
22,CCTGATTC,0.0142
